The record followed here is PubChem BioAssay (NCI).

Where “and” joins values, the source holds several entries; their conditions need not be identical. Equal entries are not always repeated.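 Each compound was tested at five concentrations against cells in 96-well plates for 48 hours. GI50 is the concentration that inhibits growth by half. TGI is the concentration that stops growth completely.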

This assay deals with NCI-H322M lung. Put plainly: NCI tumour cell line growth inhibition, 48 h.
`OC1COC(OCc2ccccc2)C(O)C1O` (stereo not given) gave a TGI of more than 100 µM.
For `NC(=O)CC(N)c1nn[nH]n1` (stereo not given), the TGI is more than 100 µM.
`O=c1[nH]c(=O)n(C2C(CO)OC(CO)C2O)cc1F` (stereo not given) came in with a TGI of more than 100 µM.
The same measure, in the same setting: the result for `CC(=O)Nc1ccc(S(=O)(=O)NN(C)S(=O)(=O)c2ccc(C)cc2)cc1` reads more than 100 µM; that for `CC(C)(C)c1cc(C(=O)O)c2c(c1)C(=O)OC2(c1ccccc1)c1ccccc1C(=O)O` (stereo not given), more than 100 µM; that for `CCC(=O)C(CCN1CCC(N2C(=O)C(CCC#N)c3ccccc32)CC1)(c1ccccc1)c1ccccc1` (stereo not given), 67.6 µM.
On to `COC(=O)c1ccc(C=C(C#N)C#N)cc1`, for which the TGI is more than 100 µM.
`CC(C)CCC[C@@H](C)[C@H]1CC[C@H]2C3=C[C@H](OS(=O)(=O)O)[C@@]4(O)C[C@@H](O)CC[C@]4(C)[C@@]3(O)CC[C@]12C` had a TGI of more than 100 µM.
As to `C[P+]1(c2ccccc2)CCCCC1`, the TGI was more than 100 µM.
As to `COc1cccc(C(NC2=NCCC=N2)c2cc3c(cc2O)OCO3)c1O` (stereo not given), the TGI was more than 100 µM.
As to `S=C(NCc1ccc2c(c1)OCO2)N1CCN(c2ncnc3c2oc2ccccc23)CC1`, the GI50 is more than 100 µM and the TGI was more than 100 µM.
Turning to `COc1ccc(COc2cc3oc(=O)c4cc(C(C)O)ccc4c3cc2OC)cc1` (stereo not given), the GI50 is 26 µM and the TGI was more than 100 µM.
`CC1CC(N2CCOCC2)=Nc2ccccc2N1Cc1ccccc1` (stereo not given) came in with a TGI of more than 100 µM.
The compound `C[C@H]1C[C@H]2[C@@H]3CCC4=CC(=O)C=C[C@]4(C)C3=CC[C@]2(C)[C@@]1(O)C(=O)CO` showed a TGI of more than 100 µM.
Compound `Nc1c(Cl)cc(-c2nc3ccccc3s2)cc1Cl` gave a TGI of more than 100 µM.
`c1cc(CN2CCNCCNCCNCC2)cc(CN2CCNCCNCCNCC2)c1` yielded a TGI of more than 100 µM.
Still for that read-out and setting: the result for `O=C(NCCCCCCCN1CCCCCCC1)C(C1CCCCC1)C1CCCCC1` reads 27.1 µM.
As for `Clc1nc(Cl)c2ncn(CCOCCn3cnc4c(Cl)nc(Cl)nc43)c2n1`, the GI50 is 1.65 µM and the TGI turned out to be 3.04 µM.
As for `Nc1nc2ncn(CC(O)CO)c2c(=O)[nH]1` (stereo not given), the TGI was more than 100 µM.
`CS(=O)(=O)C1(Br)S(=O)(=O)OCCOS1(=O)=O` gave a TGI of more than 100 µM.
As to `CCn1ccnc1C(=O)/C=C/c1ccc(CC(=O)Nc2ccc(F)cc2)cc1`, the GI50 was 3.49 µM and the TGI was 15.6 µM.
In turn, `c1ccc2c(-c3csc(-c4c[nH]c5ccccc45)n3)c[nH]c2c1` yielded a TGI of more than 100 µM.
With `CN(CCNC(=S)c1cn(C)c2c1ccc1ccccc12)CCNC(=S)c1cn(C)c2c1ccc1ccccc12`, the TGI is more than 100 µM.
Take `COc1c(OC(C)C)cc2cc(O)c(C(=O)NC3Cc4ccc(c(Cl)n4)O[C@@H]4C=C5C#C/C(=C\C#CC6OC56C4OC4CC(C)(O)C(O)C(C)O4)C(OC4CC(O)C(N(C)C)C(C)O4)COC3=O)cc2c1OC` (stereo not given in full): the GI50 was > 36.3 µM and 10.8 µg/mL; the TGI is > 36.3 µM and 37.5 µg/mL.
Consider `C=CCN(CC=C)C(=O)[C@H](CC)[C@@H]1CC[C@@H](C)[C@@H]([C@H](C)[C@@H](O)[C@@H](C)C(=O)[C@H](CC)C2O[C@]3(C=C[C@@H](O)[C@]4(CC[C@@](C)([C@H]5CC[C@](O)(CC)[C@H](C)O5)O4)O3)[C@H](C)C[C@@H]2C)O1` (stereo not given in full), for which the GI50 was 2.31 µM and the TGI was 6.77 µM.
Turning to `FC(F)(F)c1cccnc1Sc1nc2ccccc2s1`, the TGI is more than 100 µM.
The same measure, in the same setting: as for `C=C(CCC=C(C)C)C1CC=C(C)CC1` (stereo not given), the figure is more than 100 µM; as for `NC(CCCCNCc1ccccc1O)C(=O)O` (stereo not given), more than 100 µM.
`Cc1ccc(S(=O)(=O)NC(=O)Nc2cc(Cl)c(S(N)(=O)=O)cc2S(N)(=O)=O)cc1`: the TGI is more than 100 µM.
Same read-out and setting: the result for `Cc1cccc(CNc2ncnc3[nH]ncc23)c1` reads more than 100 µM.
Turning to `N#Cc1cccc(Nc2ncc(-c3ccccc3)o2)c1`, the GI50 is 13.7 µM and the TGI is more than 25 µM.
Turning to `CSc1ccc2c(cc1=O)C(NC(=O)c1ccc(C#N)cc1)CCc1cc(O)c(O)c(O)c1-2` (stereo not given), the TGI is more than 100 µM.
The compound `NC(=O)c1sc2nc3ccccc3n2c1N` gave a TGI of more than 100 µM.
Regarding `COc1ccc(-c2c3c(N)c4c(nc3nc3c2c(C)nn3-c2ccccc2)CCCC4)cc1`, the GI50 was 2.92 µM and the TGI came to 10.5 µM.
In the case of `COc1ccc(/C=N\Nc2nc(SCC(C)C)nc(-c3ccc(OC)cc3)c2C#N)cc1`, the GI50 was 4.47 µM and the TGI came out at 76.2 µM.
For the compound `COc1ccc(S(=O)(=O)N2CCNCC2)cc1OC`, the GI50 is more than 100 µM and the TGI was more than 100 µM.
For the compound `Nc1nc2c(ncn2CCCC(c2ccccc2)P(=O)(O)O)c(=O)[nH]1` (stereo not given), the TGI is more than 100 µM.
In the case of `COc1ccc(NC/C=C/C(=C/COC(C)=O)OC(C)=O)cc1`, the TGI was determined as 20.4 µM.
With `COc1cc(C(=O)/C=C/c2c(C(F)(F)F)nc3ccccn23)cc(OC)c1OC`, the GI50 is 1.66 µM and the TGI stood at 3.58 µM.
Compound `CNC(=O)CCCNC(=O)CCCC(=O)OC` registered a TGI of more than 100 µM.
For `O=C(O)CCCc1ccccc1`, the GI50 was 289 µM and > 1000 µM; the TGI was more than 1000 µM.
`O=C(Cc1ccccc1)C(c1ccccc1)S(=O)(=O)c1ccccc1` (stereo not given) gave a TGI of more than 100 µM.
As to `COc1ccc(-c2[nH]c3ccccc3c2/C=C(\C#N)S(=O)(=O)c2ccccc2)cc1`, the GI50 is 1.36 µM and the TGI is more than 100 µM.
As to `C=C1C=CC2(Br)OC3CC(C)(Cl)C(Br)CC13C2(C)C` (stereo not given), the TGI was found to be 96.8 µM.
`O=c1n(-c2ccccc2)c(=O)n2c(-c3ccccc3)c(-c3ccccc3)n12`: the TGI is more than 100 µM.
Same read-out and setting: the result for `C/C(N=NS(=O)(=O)c1ccc(C)cc1)=C1\C=CC=CN1O` reads more than 100 µM; that for `Cc1cc(O)c2c3c(ccc2c1)C(=O)c1c(O)cccc1C3=O`, more than 100 µM.
For the compound `O=C1c2ccccc2C(=O)c2c1cc1c(c2[N+](=O)[O-])OCO1`, the GI50 is 2.7 µM and the TGI was 13.3 µM.
Consider `O=C(c1c(O)cc(O)cc1O)C1Cc2ccccc21` (stereo not given), for which the TGI is more than 100 µM.
In turn, `CCN1C[C@]2(C)CC[C@H](OC)C34C5C[C@@H]6[C@@H](OC)C[C@@](OC)(C5[C@H]6OCc5ccccc5)C(C13)[C@H](OC(C)=O)[C@@H]42` (stereo not given in full) had a TGI of more than 100 µM.
On the same count and under the same terms, as for `CN(C)CC(/C(Cc1ccccc1)=N\NC(=S)NN)c1ccccc1` (stereo not given), the figure is more than 100 µM; as for `COc1c(CC=C(C)C)c(O)c(C(CC(C)C)c2c(O)c(CC=C(C)C)c(O)c(C(C)=O)c2O)c(O)c1C(C)=O` (stereo not given), 11.3 µM.
On the same count and under the same terms, as for `COC1=C2CC(C)CC(OC)C(OC(=O)CCCN)C(C)/C=C(\C)C(OC(N)=O)C(OC)/C=C\C=C(/C)C(=O)NC(=CC1=O)C2=O` (stereo not given), the figure is 47.6 µM; as for `CCOC(=O)/C=C\C(C#N)(C#N)N=Cc1ccsc1`, 33.8 µM.
Turning to `COc1cc2c(cc1NC(=O)C(Cl)Cl)-c1ccc(NC(=O)C(Cl)Cl)cc1C2`, the GI50 is 0.595 µM and the TGI was 1.92 µM.
For the compound `CC(=O)NCCCCN(CCCNC(C)=O)C(=O)OCc1ccccc1`, the TGI is more than 100 µM.
For the compound `Oc1cccnc1/C=N/OCc1ccccc1`, the TGI is more than 100 µM.
Compound `CSC(=N)N1N=C2/C(=C/c3ccccc3)CCC[C@H]2[C@H]1c1ccccc1` registered a TGI of 13.5 µM.
`COc1ccc(C2CC(c3ccc(N(C)C)cc3)=NN2c2ccc(S(N)(=O)=O)cc2)cc1` (stereo not given): the GI50 was 5.13 µM and the TGI is more than 100 µM.
On to `O=C1/C(=C/c2ccccc2O)N=C(c2ccccc2)N1c1cc(C(F)(F)F)ccc1Cl`, for which the GI50 was more than 100 µM and the TGI is more than 100 µM.
With `CC(=O)OCC(CC[CH2][Sn]([Cl])([Cl])[c]1ccccc1)OC(C)=O` (stereo not given), the GI50 is 15.5 µM and the TGI stood at 35.8 µM.
Compound `CCOC(=O)C(CCCNC(=O)OC(C)(C)C)N(Cc1ccc(OC)cc1OC)C(=O)CC(=O)CP(=O)(OCC)OCC` (stereo not given) gave a TGI of more than 100 µM.
In turn, `Cc1cn(C2CC(O)C(Cn3nncc3Cn3ncc(=O)[nH]c3=O)O2)c(=O)[nH]c1=O` (stereo not given) yielded a TGI of more than 100 µM.
Compound `c1cncc(CSc2ncnc3nc[nH]c23)c1` registered a TGI of more than 100 µM.
As to `Fc1ccc2nc(-c3nc(-c4ccccc4)n4ccccc34)[nH]c2c1`, the GI50 is 3.18 µM and the TGI worked out at 10.5 µM.
For the compound `O=C(O)CC12CC3CC(CC(O)(C3)C1)C2`, the TGI is more than 100 µM.
For `N#CCNC(=O)c1ccc(-c2ccnc(Nc3ccc(N4CCOCC4)cc3)n2)cc1`, the GI50 was 5.24 µM and 2.28 µM; the TGI was > 10 µM and 38 µM.
On to `O=S(=O)(NCCCNc1cc(-c2cn(-c3ccccc3)nc2-c2cccc(O)c2)ccn1)c1ccc(F)cc1`, for which the GI50 was 4.7 µM and the TGI turned out to be 46.4 µM.
For `COC1=C(OC)C(=O)C(CCCCCCCCCCO)=C(C)C1=O`, the GI50 is 17.3 µM and the TGI came out at 32.4 µM.
With `COC1=C(OC)[C@]2(OC)c3c(O)c(OC)c4c(c3O[C@@]23O[C@@H](c2ccccc2)CC=C3C1=O)[C@@H](OC)C[C@H](c1ccccc1)O4`, the GI50 was 1.81 µM and the TGI turned out to be 3.4 µM.
As for `CC1CCN(CCOc2ccc(CNc3ccc4nc(CCC5CCCCC5)[nH]c4c3)cc2)CC1`, the GI50 is 1.94 µM and the TGI turned out to be 4.37 µM.
In turn, `CCCCN(C)C(=O)C1=C(C)NC(C)=C(C(=O)N(C)CCCC)C1` registered a TGI of more than 100 µM.
Consider `O=S(=O)(NCCCNc1nccc(-c2c(-c3ccc(F)cc3)nc3sccn23)n1)c1ccc(F)cc1`, for which the GI50 is 25.4 µM and the TGI is more than 100 µM.
With `S=C(N/N=C/c1ccccn1)N1CCCCCC1`, the TGI was more than 100 µM.
On the same count and under the same terms, the result for `c1ccc(COC2C3COC(O3)C(OCc3ccccc3)C2OCc2ccccc2)cc1` (stereo not given) reads more than 100 µM.
Turning to `Cc1ccc(S(=O)(=O)NC(=O)OC23COCN2COC3)cc1`, the TGI is more than 100 µM.
On to `O=C1/C(=C/c2ccccc2[N+](=O)[O-])COc2ccc(O)cc21`, for which the GI50 was 8.67 µM and the TGI turned out to be 21 µM.
For `Cc1ccc(NC(=O)/C(C#N)=C/c2ccccc2)c(C)c1`, the TGI is more than 100 µM.
Consider `Nc1nc2ccccc2c2c1S(=O)(=O)c1ccc(Cl)cc1C2=O`, for which the GI50 is 3.41 µM and the TGI is more than 50 µM.
`CNC(=O)N1N[C@H](c2ccccc2)[C@@H]1c1ccccc1` displayed a TGI of more than 100 µM.
Compound `CN1CCC/C1=C1/C(=O)N(c2ccccc2)N=C1c1ccc[nH]1` displayed a TGI of more than 100 µM.
Still for that read-out and setting: the result for `CC(C)=CCC/C(C)=C/CCC1(C)C=Cc2c(c3ccccc3oc2=O)O1` (stereo not given) reads 31 µM; that for `C=C1C2CCC3(CCC4C5(C)CCCC4(C=[N+](CCO)C5)C3C2)C1O` (stereo not given), more than 100 µM.
